These results are taken from PubChem BioAssay AID488969 (Vanderbilt High Throughput Screening Facility, 2010).

In all, about 110,000 compounds were measured (“z-score”: median about -0.1, highest 2% from about 2 on). This is one part of the list.

The test deals with Metabotropic glutamate receptor 8 (Rattus norvegicus) (UniProt P70579). Description: rat mGluR8 modulators via GIRK flux, primary screen, cell-based, thallium flux, HTS (AID 488969). Particulars: HEK293 rat mGluR8, GIRK (G protein-gated inwardly rectifying potassium channel) thallium flux, FluoZin2; at 10 µM; stronger effect = higher value; submaximal glutamate (EC20) added with thallium.
Chain of UniProt P70579 (P70579 whole entry, looked up): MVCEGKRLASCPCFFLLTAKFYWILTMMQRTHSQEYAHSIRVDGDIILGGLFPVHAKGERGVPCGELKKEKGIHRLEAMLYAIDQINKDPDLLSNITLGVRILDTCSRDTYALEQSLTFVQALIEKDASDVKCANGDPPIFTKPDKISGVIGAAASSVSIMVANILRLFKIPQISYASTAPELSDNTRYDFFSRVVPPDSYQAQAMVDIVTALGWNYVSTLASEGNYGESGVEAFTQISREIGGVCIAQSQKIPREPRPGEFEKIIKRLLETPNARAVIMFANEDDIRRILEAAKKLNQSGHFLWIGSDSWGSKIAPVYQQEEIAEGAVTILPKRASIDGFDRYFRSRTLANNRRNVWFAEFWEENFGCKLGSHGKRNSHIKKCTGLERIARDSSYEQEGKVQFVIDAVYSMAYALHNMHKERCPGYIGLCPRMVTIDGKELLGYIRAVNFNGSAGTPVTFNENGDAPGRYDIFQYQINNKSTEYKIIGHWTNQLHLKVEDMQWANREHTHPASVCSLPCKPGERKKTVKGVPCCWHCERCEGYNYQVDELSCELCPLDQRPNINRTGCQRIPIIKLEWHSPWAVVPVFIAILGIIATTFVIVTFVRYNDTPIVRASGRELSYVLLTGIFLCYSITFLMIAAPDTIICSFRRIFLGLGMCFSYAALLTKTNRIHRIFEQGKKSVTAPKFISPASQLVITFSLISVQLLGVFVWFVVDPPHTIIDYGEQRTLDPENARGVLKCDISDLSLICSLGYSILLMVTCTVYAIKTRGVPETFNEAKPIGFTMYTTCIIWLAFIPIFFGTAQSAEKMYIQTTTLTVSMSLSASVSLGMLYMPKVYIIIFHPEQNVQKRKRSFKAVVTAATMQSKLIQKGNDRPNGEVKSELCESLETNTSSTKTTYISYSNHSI
`C=C(C)CN1C(=O)C(O)(CC(=O)c2ccc3c(c2)OCCO3)c2ccccc21` (configuration not stated) had a z-score of -0.395.

Take `CCN(C(=O)C1CCN(S(=O)(=O)c2ccc3c(c2)oc(=O)n3C)CC1)c1cccc(C)c1`: the z-score was -0.295.

As for `c1ccc(CSc2nnc(-c3cccnc3)o2)cc1`, the z-score was -0.395.

In turn, `O=C(Nc1ccc(NC(=S)NC(=O)c2ccccc2Cl)cc1)c1cccc(Cl)c1` showed a z-score of 0.333.

The molecule `Cc1cc(-c2nnc(SCC(=O)c3ccc(Cl)cc3)o2)no1` registered a z-score of 0.00163.

As to `O=C(NCc1ccco1)NC1CCCCC1`, the z-score is 0.204.

`O=C(c1ccccc1F)N1CCC(N2CCCCCC2)CC1`: the z-score amounted to 0.427.

Molecule `Fc1ccccc1OCCCCSc1ncccn1` displayed a z-score of -0.159.

The molecule `OCCNCCOCCOc1ccccc1-c1ccccc1` registered a z-score of 1.04.

With `O=C(NCCc1ccccc1F)C1CCCN1S(=O)(=O)c1ccc2ccccc2c1` (configuration not stated), the z-score was -0.428.

In turn, `CCOC(=O)c1cnc2ccccc2c1Nc1ccc2c(c1)OCCO2` registered a z-score of -0.283.

Consider `O=C1CCCC2=C1C(c1cccs1)n1ncnc1N2` (configuration not stated), for which the z-score is -0.0422.

Molecule `CCCCCCC(=O)N/N=C(\C)Cc1ccccc1` gave a z-score of -0.338.

Consider `O=C(Nc1cccc(NC(=O)c2cccnc2Cl)c1)c1ccco1`, for which the z-score is 0.42.

Consider `CCOC(=O)C1=C(c2ccccc2)NC(=S)NC1C` (configuration not stated), for which the z-score stood at 0.119.

For the molecule `CN1CCN(c2ccc(NC(=O)c3ccc4c(c3)OCO4)cc2)CC1`, the z-score was -0.677.

`COC(=O)c1cccc(CSc2nnc(C)s2)c1` displayed a z-score of -0.565.

As to `O=C(CN(C1CCCCC1)S(=O)(=O)c1ccc(F)cc1)NCCCO`, the z-score is 0.99.

`CCCC1(C(=O)OC)NC(c2ccc(OC)c(OC)c2)C2C(=O)N(c3ccc4c(c3)OCO4)C(=O)C21` (configuration not stated) registered a z-score of 0.00817.

Molecule `Nc1c(C(=O)NCc2ccccc2)nnn1Cc1ccccc1` registered a z-score of -0.0852.

`CC1CN(CCc2ccccc2)c2nc3c(c(=O)[nH]c(=O)n3C)n2C1` (configuration not stated) registered a z-score of 0.411.

For the molecule `COc1ccccc1NC(=O)COc1ccc(Br)cc1CO`, the z-score turned out to be 2.95.

As to `CCN1CCCC1CN(Cc1cc2cc(C)ccc2[nH]c1=O)C(=O)Nc1ccccc1OC` (configuration not stated), the z-score is -0.807.

`COc1ccc(OC(=O)c2ccncc2)cc1` returned a z-score of -0.235.

The molecule `O=C(CCCCCN1C(=O)CCC1=O)Nc1ccc(Br)cc1F` displayed a z-score of -0.095.

For the molecule `Cc1ccc(C(=O)CSc2nc(N)cc(=O)[nH]2)cc1`, the z-score was -0.0831.

On to `CCOc1ccc(/C(O)=C2/C(=O)C(=O)N(CC3CCCO3)C2c2ccc(C)o2)cc1` (configuration not stated), for which the z-score is -0.916.

For the molecule `COc1ccc(CNC2CCCc3ccccc32)cc1OC` (configuration not stated), the z-score was -0.106.

Regarding `Cc1nnsc1C(=O)N/N=C/c1ccccc1`, the z-score came out at 0.0925.

Turning to `COc1ccc(/C=N/N2C(=O)CSC2=S)cc1`, the z-score is -0.223.

In the case of `CC(C)c1nnc(NC(=O)CCC(=O)NC2CCCc3ccccc32)s1` (configuration not stated), the z-score was -0.244.

Consider `COc1ccc(NC(=O)C2CC(=O)OC2c2ccccc2)cc1` (configuration not stated), for which the z-score was -0.227.

Take `COc1cc(C)nc(Oc2ccc(OCCOc3ccc(C)cc3)nn2)n1`: the z-score stood at 0.22.

`CCOC(=O)c1c(C)nc2sc3c(=O)n(-c4ccc(C)cc4)cnc3c2c1-c1ccc(OC)cc1` yielded a z-score of -0.181.

The molecule `O=C(Nc1cccc(F)c1)C1CCN(C(=O)c2ccccc2Cl)CC1` gave a z-score of -0.486.

Take `CCN1C(=O)C(C(=O)Nc2ccc(OC)cc2)C2CC1(C)Oc1ccccc12` (configuration not stated): the z-score was -0.393.

The molecule `O=C(CN1C(=O)c2cccc3cccc1c23)N1CCN(c2ccc(F)cc2)CC1` came in with a z-score of 0.917.

For `Cc1ccccc1NC(=O)c1ccc(C)c(S(=O)(=O)Nc2ccccn2)c1`, the z-score was -0.0342.

As for `C=CCn1c(SCC(=O)O)nnc1-c1cccs1`, the z-score was found to be 0.204.

Consider `Cc1ccc(C)c(N=Nc2nc3ccccc3n2C)c1`, for which the z-score was -0.337.

On to `Cc1oc(-c2cccc(Cl)c2)[n+]([O-])c1C`, for which the z-score is 0.246.

Molecule `O=C(CC(SCCO)c1ccc2c(c1)OCO2)c1cccs1` (configuration not stated) came in with a z-score of -0.239.

Consider `Nc1c(-c2ccccc2)c(CSc2nc3ccccc3[nH]2)nn1-c1ccc(C(=O)O)cc1`, for which the z-score was -0.238.

`COc1ccc(C(CC(=O)NCCCN2CCOCC2)NS(=O)(=O)c2ccc(C)cc2)cc1` (configuration not stated) had a z-score of 1.53.

As to `COc1ccccc1Nc1nnc(SCC(=O)N2CC(=O)Nc3ccccc32)s1`, the z-score was -0.0654.

For the molecule `CC1(C)CC(=O)c2sc(NC(=O)c3ccc4ncsc4c3)nc2C1`, the z-score is 0.617.

`c1ccc(COc2ccc(CN3CCN(c4ccccn4)CC3)cc2)cc1` came in with a z-score of 0.0284.

For the molecule `COc1ccc2c(C)cc(SCC(=O)NCCN3C(=O)CSC3=O)nc2c1`, the z-score was -0.133.

`COc1cc(S(=O)(=O)NCc2cccnc2)ccc1F` came in with a z-score of -0.295.

`COc1ccc(C(=O)NC(NC(=S)Nc2ccc(S(N)(=O)=O)cc2)C(Cl)(Cl)Cl)cc1` (configuration not stated): the z-score was -0.78.

Take `Cc1cc(=O)[nH]c(SCC(=O)N2CCCc3ccccc32)n1`: the z-score turned out to be 0.265.

In turn, `CCCC(O)(CCC)C(=O)NNc1ccccc1` registered a z-score of -0.799.

In turn, `COc1ccc(S(=O)(=O)NC(CC(=O)NCCc2ccccc2)c2ccco2)cc1` (configuration not stated) gave a z-score of 0.734.

With `N=c1c(C(=O)NCc2ccco2)cc2c(=O)n3ccccc3nc2n1Cc1ccccc1`, the z-score was 1.15.

Molecule `Cc1cccc(OCCN2C(=O)C(=O)c3cccc(C)c32)c1` returned a z-score of -0.0757.

Molecule `O=C(c1ccc(-c2ccc(Cl)cc2)o1)N1CCN(c2ccc([N+](=O)[O-])cc2Cl)CC1` gave a z-score of 0.535.

On to `O=C(NCc1ccccc1Cl)c1ccc(S(=O)(=O)Nc2cccc(C(F)(F)F)c2)cc1`, for which the z-score is -0.166.

The molecule `CCn1cc([N+](=O)[O-])c(C(=O)Nc2ccn(Cc3ccccc3F)n2)n1` yielded a z-score of 0.324.

As to `COCc1nnc(NC(=O)c2cccs2)s1`, the z-score was -0.0696.

Consider `Cc1ccc(O)c(-c2cc(C(F)(F)F)[nH]n2)c1`, for which the z-score is -1.36.

`CC1CCN(c2nc(/C=C/c3ccccc3)nc3ccccc23)CC1` returned a z-score of -0.13.

In turn, `COc1ccc(NC(=O)CN(c2cccc(C(F)(F)F)c2)S(C)(=O)=O)cc1OC` displayed a z-score of -0.276.

With `CCOC(=O)C(NS(=O)(=O)c1ccccc1)(C(F)(F)F)P(=O)(OC(C)C)OC(C)C` (configuration not stated), the z-score was -0.166.

As to `CCOC(=O)c1sc2nc(C)cc(-c3ccccc3)c2c1N`, the z-score is -0.0449.

In the case of `COCCn1nnnc1C(c1ccc(C(F)(F)F)cc1)N1CCOCC1` (configuration not stated), the z-score was -0.933.

On to `CCOC(=O)c1c(NC(=O)CNCCOC)sc2c1CCCC2`, for which the z-score is -1.06.

For `COCCn1c(-c2ccc(Cl)cc2)cnc1SCC(=O)NCCc1ccc(OC)c(OC)c1`, the z-score is -0.247.

For the molecule `COC(=O)C1CCN(C(=O)CSc2ccccc2)CC1`, the z-score is -0.196.

As to `NC(=O)c1ccccc1NC(=O)NC1CCCCC1`, the z-score was found to be 0.353.

The molecule `CC(=O)Nc1c(C(=O)C2CC2)oc2ccccc12` came in with a z-score of -0.133.

For the molecule `CC(=O)Oc1ccc(N(C(C)=O)S(=O)(=O)c2cc([N+](=O)[O-])ccc2C)cc1`, the z-score is -0.849.

The molecule `O=C(O)CCC(=O)Nc1ccc(Cc2ccc(NC(=O)CCC(=O)O)c(O)c2)cc1O` returned a z-score of -0.64.
